Results: the supplement of paper PMC10369915
The list shows a part of the results. Rule as the data show it: active = 3.2 or more and inactive = the rest. Only a few entries rise above the background.

Tests used:
Test in all cases: enrichment score (SH2-bound / input frequency) (ratio); bacterial display of known human phosphotyrosine sites (pTyr-Var adds point mutants) read by sequencing; higher = stronger binding; tyrosines were phosphorylated by kinases first
Details in all cases: peptide library: pTyr-Var
[1] = biological target: SHP2 C-SH2 domain E139D
[2] = biological target: SHP2 C-SH2 domain wild-type
[3] = biological target: SHP2 N-SH2 domain L43F
[4] = biological target: SHP2 N-SH2 domain T42A
[5] = biological target: SHP2 N-SH2 domain T52S
[6] = biological target: SHP2 N-SH2 domain wild-type
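Also: displayed peptides selected on beads carrying the immobilized SH2 domain, with library peptides lacking any tyrosine serving as negative controls.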

For GVPLGYPIKAP [ELN_Y206], the enrichment score [1] was inactive: 0.876, the enrichment score [2] was inactive: 0.771 and the enrichment score [3] was inactive: 0.684. The enrichment score [4] was inactive: 0.631, the enrichment score [5] was inactive: 0.627 and the enrichment score [6] was inactive: 0.774.

AIIEEYLHLSD [EIF4G1_Y1253_N1257S] was tested, and the enrichment score [1] was inactive: 0.935, the enrichment score [2] was inactive: 0.973 and the enrichment score [3] was inactive: 1.02. For the same binder, the enrichment score [4] was inactive: 0.984, the enrichment score [5] was inactive: 1.02 and the enrichment score [6] was inactive: 1.

KGIDRYNPENL [EIF3K_Y21] was tested, and the enrichment score [1] was inactive: 0.931, the enrichment score [2] was inactive: 0.854 and the enrichment score [3] was inactive: 0.978. The enrichment score [4] was inactive: 0.759, the enrichment score [5] was inactive: 0.882 and the enrichment score [6] was inactive: 0.789.

In the case of ERDYTYDELLN [EIF2S2_Y176_E177D], the enrichment score [1] is reported as inactive: 0.708, the enrichment score [2] is reported as inactive: 0.672 and the enrichment score [3] is reported as inactive: 0.568. For the same binder, the enrichment score [4] was inactive: 0.705, the enrichment score [5] was inactive: 0.531 and the enrichment score [6] was inactive: 0.989.

With GSERDYTFDEL [EIF2S2_Y174_E177D_YF] the enrichment score [1] was inactive: 0.561, the enrichment score [2] was inactive: 0.586 and the enrichment score [3] was inactive: 0.665. For the same binder, the enrichment score [4] was inactive: 0.426, the enrichment score [5] was inactive: 0.533 and the enrichment score [6] was inactive: 0.697.

With LTTEAYEWEPC [ELMOD3_Y61_R66C] the enrichment score [1] was inactive: 0.881, the enrichment score [2] was inactive: 1.07 and the enrichment score [3] was inactive: 0.857. For the same binder, the enrichment score [4] was inactive: 0.421, the enrichment score [5] was inactive: 0.579 and the enrichment score [6] was inactive: 0.915.

RWQQLYDTLNA [EIF3M_Y351_Q346R] was tested, and the enrichment score [1] was inactive: 0.789, the enrichment score [2] was inactive: 1.19 and the enrichment score [3] was inactive: 0.82. For the same binder, the enrichment score [4] was inactive: 1.09, the enrichment score [5] was inactive: 0.883 and the enrichment score [6] was inactive: 1.13.

For IRGNMYFENSF [EGFR_Y112_YF], the enrichment score [1] was inactive: 1.11, the enrichment score [2] was inactive: 1.33 and the enrichment score [3] was inactive: 1.35. For the same binder, the enrichment score [4] was inactive: 1.19, the enrichment score [5] was inactive: 1.22 and the enrichment score [6] was inactive: 1.37.

With QTENKYVSVSG [EIF2AK3_Y565_D566V] the enrichment score [1] was inactive: 0.715, the enrichment score [2] was inactive: 0.978 and the enrichment score [3] was inactive: 0.495. For the same binder, the enrichment score [4] was inactive: 0.759, the enrichment score [5] was inactive: 0.449 and the enrichment score [6] was inactive: 0.495.

In the case of AIIEEYLHLND [EIF4G1_Y1253], the enrichment score [1] is reported as inactive: 0.948, the enrichment score [2] is reported as inactive: 0.833 and the enrichment score [3] is reported as inactive: 0.88. The enrichment score [4] was inactive: 0.944, the enrichment score [5] was inactive: 0.898 and the enrichment score [6] was inactive: 0.977.

For SLDLSYFPTSS [EMD_Y181_YF], the enrichment score [1] was inactive: 1.02, the enrichment score [2] was inactive: 0.986 and the enrichment score [3] was inactive: 1.11. The enrichment score [4] was inactive: 0.852, the enrichment score [5] was inactive: 1.15 and the enrichment score [6] was inactive: 1.21.

FEPDAYDDLDQ [ELP5_Y302_YF] was tested, and the enrichment score [1] was inactive: 0.463, the enrichment score [2] was inactive: 0.361 and the enrichment score [3] was inactive: 0.41. The enrichment score [4] was inactive: 0.405, the enrichment score [5] was inactive: 0.406 and the enrichment score [6] was inactive: 0.643.

With RGNMYYENSYA [EGFR_Y113] the enrichment score [1] was inactive: 1.03, the enrichment score [2] was inactive: 0.909 and the enrichment score [3] was inactive: 0.87. For the same binder, the enrichment score [4] was inactive: 0.739, the enrichment score [5] was inactive: 0.953 and the enrichment score [6] was inactive: 0.872.

QTENKYDSVSG [EIF2AK3_Y565] was tested, and the enrichment score [1] was inactive: 0.395, the enrichment score [2] was inactive: 0.561 and the enrichment score [3] was inactive: 0.277. For the same binder, the enrichment score [4] was inactive: 0.373, the enrichment score [5] was inactive: 0.626 and the enrichment score [6] was inactive: 0.611.

With IGRWVYPLTPE [EIF2B5_Y319_R315G] the enrichment score [1] was inactive: 1.67, the enrichment score [2] was inactive: 1.46 and the enrichment score [3] was inactive: 1.64. For the same binder, the enrichment score [4] was inactive: 1.57, the enrichment score [5] was inactive: 1.62 and the enrichment score [6] was inactive: 1.53.

With PPLMLYNPTTY [EGFR_Y270] the enrichment score [1] was inactive: 0.991, the enrichment score [2] was inactive: 0.729 and the enrichment score [3] was inactive: 1.35. For the same binder, the enrichment score [4] was inactive: 0.796, the enrichment score [5] was inactive: 1.08 and the enrichment score [6] was inactive: 0.855.

In the case of AEEKEYHAEEG [EGFR_Y869_G873E], the enrichment score [1] is reported as inactive: 0.409, the enrichment score [2] is reported as inactive: 0.631 and the enrichment score [3] is reported as inactive: 0.553. For the same binder, the enrichment score [4] was inactive: 0.479, the enrichment score [5] was inactive: 0.402 and the enrichment score [6] was inactive: 0.676.

With GIADDYDKKKP [EIF1_Y54_L59P] the enrichment score [1] was inactive: 0.668, the enrichment score [2] was inactive: 0.533 and the enrichment score [3] was inactive: 0.472. The enrichment score [4] was inactive: 0.583, the enrichment score [5] was inactive: 0.656 and the enrichment score [6] was inactive: 0.719.

For SLDLSYFTTSS [EMD_Y181_P183T_YF], the enrichment score [1] was inactive: 1.5, the enrichment score [2] was inactive: 1.22 and the enrichment score [3] was inactive: 0.991. For the same binder, the enrichment score [4] was inactive: 1.18, the enrichment score [5] was inactive: 1.17 and the enrichment score [6] was inactive: 1.18.

With KGNMFYENSFA [EGFR_Y113_R108K_YF] the enrichment score [1] was inactive: 1.53, the enrichment score [2] was inactive: 1.78 and the enrichment score [3] was inactive: 1.94. For the same binder, the enrichment score [4] was inactive: 2.14, the enrichment score [5] was inactive: 1.53 and the enrichment score [6] was inactive: 1.63.

With IKNSGYISQFL [EIF2AK3_Y585_R588Q_YF] the enrichment score [1] was inactive: 1.14, the enrichment score [2] was inactive: 1.3 and the enrichment score [3] was inactive: 1.1. For the same binder, the enrichment score [4] was inactive: 1.21, the enrichment score [5] was inactive: 1.15 and the enrichment score [6] was inactive: 0.872.

With VDSLRYIYPKL [EIF2B3_Y92_A87V] the enrichment score [1] was inactive: 0.958, the enrichment score [2] was inactive: 1.36 and the enrichment score [3] was active: 4.38. For the same binder, the enrichment score [4] was active: 4.46, the enrichment score [5] was active: 5.74 and the enrichment score [6] was inactive: 2.41.

AFSTVYKGLWI [EGFR_Y727_G724S] was tested, and the enrichment score [1] was inactive: 1.53, the enrichment score [2] was inactive: 1.48 and the enrichment score [3] was inactive: 1.35. For the same binder, the enrichment score [4] was inactive: 3.16, the enrichment score [5] was inactive: 1.66 and the enrichment score [6] was inactive: 1.16.

IRRWVYPLTPE [EIF2B5_Y319] was tested, and the enrichment score [1] was inactive: 0.701, the enrichment score [2] was inactive: 0.523 and the enrichment score [3] was inactive: 0.653. The enrichment score [4] was inactive: 0.68, the enrichment score [5] was inactive: 0.535 and the enrichment score [6] was inactive: 0.514.

In the case of GVPLGYPIKAS [ELN_Y206_P211S], the enrichment score [1] is reported as inactive: 0.883, the enrichment score [2] is reported as inactive: 0.896 and the enrichment score [3] is reported as inactive: 0.868. For the same binder, the enrichment score [4] was inactive: 0.789, the enrichment score [5] was inactive: 0.782 and the enrichment score [6] was inactive: 0.9.

With SSPMKYQQNVS [EGFEM1P_Y160] the enrichment score [1] was inactive: 0.769, the enrichment score [2] was inactive: 0.557 and the enrichment score [3] was inactive: 0.568. For the same binder, the enrichment score [4] was inactive: 0.61, the enrichment score [5] was inactive: 0.735 and the enrichment score [6] was inactive: 0.857.

With SLDLSYYTTSS [EMD_Y181_P183T] the enrichment score [1] was inactive: 1.03, the enrichment score [2] was inactive: 0.917 and the enrichment score [3] was inactive: 0.894. For the same binder, the enrichment score [4] was inactive: 0.848, the enrichment score [5] was inactive: 1 and the enrichment score [6] was inactive: 0.936.

For ADSLRYIFPKL [EIF2B3_Y92_YF], the enrichment score [1] was inactive: 1.29, the enrichment score [2] was inactive: 1.86 and the enrichment score [3] was active: 8.37. For the same binder, the enrichment score [4] was active: 7.69, the enrichment score [5] was active: 10.4 and the enrichment score [6] was active: 3.34.

In the case of VNNTVYGIDAM [EIF3J_Y143_A141T], the enrichment score [1] is reported as inactive: 0.697, the enrichment score [2] is reported as inactive: 0.665 and the enrichment score [3] is reported as inactive: 0.569. The enrichment score [4] was inactive: 0.475, the enrichment score [5] was inactive: 0.613 and the enrichment score [6] was inactive: 0.758.

In the case of SGADSYEMEED [EGFR_Y316_C311S], the enrichment score [1] is reported as inactive: 0.388, the enrichment score [2] is reported as inactive: 0.457 and the enrichment score [3] is reported as inactive: 0.344. For the same binder, the enrichment score [4] was inactive: 0.46, the enrichment score [5] was inactive: 0.35 and the enrichment score [6] was inactive: 0.497.

With ERDFTYDELLN [EIF2S2_Y176_E177D_YF] the enrichment score [1] was inactive: 0.682, the enrichment score [2] was inactive: 0.685 and the enrichment score [3] was inactive: 0.637. For the same binder, the enrichment score [4] was inactive: 0.627, the enrichment score [5] was inactive: 0.667 and the enrichment score [6] was inactive: 0.85.

For KLQKYYRKNPD [EHHADH_Y683_Q685K], the enrichment score [1] was inactive: 0.836, the enrichment score [2] was inactive: 0.571 and the enrichment score [3] was inactive: 0.586. The enrichment score [4] was inactive: 0.488, the enrichment score [5] was inactive: 0.731 and the enrichment score [6] was inactive: 0.782.

With INSLKYAYNVS [EIF2B5_Y583_I587V] the enrichment score [1] was inactive: 0.758, the enrichment score [2] was inactive: 0.711 and the enrichment score [3] was inactive: 0.708. The enrichment score [4] was inactive: 0.75, the enrichment score [5] was inactive: 0.829 and the enrichment score [6] was inactive: 0.699.

In the case of QLGLQYSQGLV [EIF2B4_Y214_R209Q], the enrichment score [1] is reported as inactive: 1.41, the enrichment score [2] is reported as inactive: 1.05 and the enrichment score [3] is reported as inactive: 1.28. The enrichment score [4] was inactive: 1.18, the enrichment score [5] was inactive: 1.41 and the enrichment score [6] was inactive: 1.57.

ICRWVYPLTPE [EIF2B5_Y319_R315C] was tested, and the enrichment score [1] was inactive: 1.21, the enrichment score [2] was inactive: 1.09 and the enrichment score [3] was inactive: 1.04. The enrichment score [4] was inactive: 0.942, the enrichment score [5] was inactive: 1.16 and the enrichment score [6] was inactive: 0.993.

In the case of GSERDYTYEEL [EIF2S2_Y174], the enrichment score [1] is reported as inactive: 0.633, the enrichment score [2] is reported as inactive: 0.635 and the enrichment score [3] is reported as inactive: 0.6. The enrichment score [4] was inactive: 0.536, the enrichment score [5] was inactive: 0.503 and the enrichment score [6] was inactive: 0.552.

YEPDAYYDLDQ [ELP5_Y302_D303Y] was tested, and the enrichment score [1] was inactive: 0.769, the enrichment score [2] was inactive: 0.862 and the enrichment score [3] was inactive: 0.706. For the same binder, the enrichment score [4] was inactive: 0.626, the enrichment score [5] was inactive: 0.717 and the enrichment score [6] was inactive: 0.947.
